In all, about 39,000 compounds went through this assay and about 220 (0.56%) showed activity. Some of the results follow.
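Also: static incubation at 37 °C against the wild-type strain, values averaged over two biological replicates.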

This test deals with Escherichia coli K-12 BW25113. Kind of test: relative growth (OD600 normalised to plate interquartile mean) (fraction); higher = less growth inhibition, active = 0.2 or less. Particulars: 50 µM; LB; incubation time: overnight (16-24 h).
As to `O=C(C[C@@H]1C[C@@H]2c3cc(NS(=O)(=O)c4ccccc4)ccc3O[C@@H]2[C@@H](CO)O1)NC1CCCCC1`, the relative growth is inactive: 0.998.
On to `COc1ccc(S(=O)(=O)Nc2ccc3c(c2)C(=O)N([C@@H](C)CO)C[C@@H](C)[C@H](CN(C)S(=O)(=O)c2ccccc2)O3)cc1`, for which the relative growth was inactive: 1.01.
Turning to `C[C@H]1CCCCO[C@@H](CN(C)C(=O)Nc2ccc(C(F)(F)F)cc2)[C@@H](C)CN([C@@H](C)CO)C(=O)c2cc(NS(=O)(=O)c3ccccc3)ccc2O1`, the relative growth was inactive: 1.04.
Consider `C[C@H]1CN([C@@H](C)CO)C(=O)c2cccc(NC(=O)C3CCOCC3)c2O[C@H]1CN(C)S(=O)(=O)c1cn(C)cn1`, for which the relative growth is inactive: 0.99.
Turning to `C[C@@H]1CCCCO[C@H](CN(C)C(=O)Nc2ccc(F)cc2)[C@H](C)CN([C@H](C)CO)C(=O)c2cc(NS(=O)(=O)c3cccs3)ccc2O1`, the relative growth was inactive: 1.02.
With `Cc1noc(C)c1NC(=O)Nc1ccc2c(c1)C(=O)N([C@@H](C)CO)C[C@H](C)[C@H](CN(C)Cc1ccc(Oc3ccccc3)cc1)O2` the figure was inactive: 0.986.
With `C[C@@H]1CN([C@H](C)CO)C(=O)c2cc(NC(=O)c3ccncc3)ccc2O[C@@H]1CN(C)S(=O)(=O)c1cn(C)cn1` the figure was inactive: 0.964; with `C[C@H](CO)N1C[C@H](C)[C@H](CN(C)C(=O)CCCN(C)C)OCCCC[C@H](C)Oc2ccc(NS(C)(=O)=O)cc2C1=O`, inactive: 0.988.
On to `C[C@@H]1CN([C@H](C)CO)C(=O)Cc2cc(NC(=O)Nc3ccccc3)ccc2O[C@H]1CN(C)C(=O)Nc1ccc(C(F)(F)F)cc1`, for which the relative growth was inactive: 1.01.
With `C[C@@H]1CN([C@@H](C)CO)C(=O)c2cc(NC(=O)c3ccncc3)ccc2O[C@@H](C)CCCCO[C@H]1CN(C)C(=O)Nc1ccc(F)cc1`, the relative growth was inactive: 0.974.
With `Cc1cc(C(=O)Nc2cccc3c2O[C@@H](CN(C)Cc2ccncc2)[C@H](C)CN([C@@H](C)CO)C3=O)n(C)n1` the figure was inactive: 0.992.
With `COc1ccc(NC(=O)N(C)C[C@@H]2OCCCC[C@H](C)Oc3ccc(NS(=O)(=O)c4cccs4)cc3C(=O)N([C@@H](C)CO)C[C@@H]2C)cc1` the figure was inactive: 1.02; with `COc1ccc2nc(S(=O)Cc3ncc(C)c(OC)c3C)[nH]c2c1` (configuration not stated), inactive: 1.06; with `Cc1ccc(S(=O)(=O)Nc2cccc3c2O[C@@H](CN(C)S(=O)(=O)c2cccs2)[C@@H](C)CN([C@@H](C)CO)C3=O)cc1`, inactive: 1.01.
With `CC(C)NC(=O)Nc1ccc2c(c1)C(=O)N([C@H](C)CO)C[C@@H](C)[C@H](CN(C)C(=O)C1CCCCC1)OCCCC[C@H](C)O2` the figure was inactive: 0.987; with `C[C@H](CO)N1C[C@H](C)[C@@H](CN(C)C(=O)NC2CCCCC2)OCCCC[C@H](C)Oc2ccc(NS(=O)(=O)c3ccccc3)cc2C1=O`, inactive: 1.02; with `C[C@@H]1CN([C@@H](C)CO)S(=O)(=O)c2ccc(C#CCN(C)C)cc2O[C@H]1CN(C)S(=O)(=O)c1cccc(F)c1`, inactive: 1.02.
Turning to `COc1ccc([Si](C)(C)[C@@H]2[C@@H](CCO)O[C@]3(C(=O)N(Cc4ccc(N(C=O)c5ccccc5)cc4)c4ccccc43)[C@H]2C)cc1`, the relative growth was inactive: 1.04.
With `C[C@@H]1CN([C@@H](C)CO)C(=O)Cc2cc(NC(=O)CCC(F)(F)F)ccc2O[C@@H]1CN(C)S(=O)(=O)c1ccccc1` the figure was inactive: 0.989; with `CC(CS)C(=O)N1CCCC1C(=O)O` (configuration not stated), inactive: 1.05.
With `CCCCCS(=O)(=O)CCCCCCCCCCn1c(-c2ccc(O)cc2)c(C)c2cc(O)ccc21` the figure was inactive: 1.03.
As for `C[C@@H]1CN([C@@H](C)CO)C(=O)Cc2cc(NC(=O)Nc3ccc(C(F)(F)F)cc3)ccc2O[C@@H]1CN(C)Cc1ccc(Cl)c(Cl)c1`, the relative growth is inactive: 1.02.
As for `C[C@@H]1CCCCO[C@@H](CN(C)Cc2ccncc2)[C@@H](C)CN([C@H](C)CO)C(=O)c2cc(NC(=O)Nc3ccc(F)cc3)ccc2O1`, the relative growth is inactive: 0.999.
With `C[C@@H]1CN([C@H](C)CO)C(=O)c2cc(NC(=O)NC3CCCCC3)ccc2O[C@@H](C)CCCCO[C@@H]1CN(C)C(=O)Nc1ccccc1` the figure was inactive: 1; with `Cc1ccc(S(=O)(=O)N(C)C[C@@H]2Oc3ccc(NC(=O)Nc4ccc(C(F)(F)F)cc4)cc3CC(=O)N([C@H](C)CO)C[C@H]2C)cc1`, inactive: 1.03.
With `COc1ccccc1CNC(=O)C[C@@H]1C[C@H]2c3cc(NC(=O)NC4CCCC4)ccc3O[C@H]2[C@@H](CO)O1` the figure was inactive: 1.01.
With `C[C@@H]1CN([C@H](C)CO)C(=O)c2cccc(NC(=O)c3ccncc3)c2O[C@H]1CN(C)S(=O)(=O)c1ccc(F)cc1` the figure was inactive: 1.02; with `COc1ccc(S(=O)(=O)Nc2cccc3c2O[C@H](CN(C)Cc2ccc(-c4ccccc4)cc2)[C@H](C)CN([C@H](C)CO)C3=O)cc1`, inactive: 1.04; with `C[C@@H]1CCCCO[C@@H](CN(C)Cc2ccc(Cl)c(Cl)c2)[C@H](C)CN([C@@H](C)CO)C(=O)c2cc(NC(=O)Nc3ccc4c(c3)OCO4)ccc2O1`, inactive: 0.985.
For the molecule `CCO[C@H]1OC(C(N)=O)=C[C@@H](C)[C@@H]1CCCO`, the relative growth is inactive: 1.01.
Consider `C[C@@H]1CN([C@H](C)CO)C(=O)Cc2cc(NC(=O)C3CC3)ccc2O[C@H]1CN(C)S(=O)(=O)c1ccccc1`, for which the relative growth was inactive: 1.02.
With `C[C@@H](N)CCCP(=O)(O)O` the figure was inactive: 1.01; with `C[C@@H]1CN([C@H](C)CO)C(=O)c2cccc(NC(=O)Nc3ccc(F)cc3)c2O[C@H]1CN(C)Cc1ccc(Cl)c(Cl)c1`, inactive: 0.951.
With `C[C@@H]1CCCCO[C@@H](CN(C)Cc2ccc(C(=O)O)cc2)[C@H](C)CN([C@@H](C)CO)C(=O)c2cc(NS(=O)(=O)c3ccc(F)cc3)ccc2O1` the figure was inactive: 0.995.
Turning to `C[C@H](CO)N1C[C@H](C)[C@@H](CN(C)S(=O)(=O)c2ccc3c(c2)OCCCO3)OCc2cn(nn2)CCCC1=O`, the relative growth is inactive: 0.999.
Consider `Cl.[NaH]`, for which the relative growth was inactive: 1.01.
Take `COc1ccccc1C(=O)Nc1ccc2c(c1)C(=O)N(C)[C@@H]1CC[C@H](CC(=O)NCc3ccc(Cl)c(Cl)c3)O[C@@H]1CO2`: the relative growth is inactive: 1.02.
